Data on 110 compounds can be found in PubChem BioAssay AID488969 (Vanderbilt High Throughput Screening Facility, 2010).

Molecules are shown by their SMILES. Whole data set: some 110,000 compounds, median “z-score” near -0.1, cut for the highest 2% near 2. Some of the results follow. The source made the active and inactive calls.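 Rule for the calls: active = z-score in the third read window above 3 or below -3; inactive = the rest.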

For this assay, the target named is Metabotropic glutamate receptor 8 (Rattus norvegicus) (UniProt P70579). Briefly: rat mGluR8 modulators via GIRK flux, primary screen, cell-based, thallium flux, HTS (AID 488969). The following applies: HEK293 rat mGluR8, GIRK (G protein-gated inwardly rectifying potassium channel) thallium flux, FluoZin2; at 10 µM; stronger effect = higher value; submaximal glutamate (EC20) added with thallium.
UniProt P70579, sequence (P70579 whole entry, looked up): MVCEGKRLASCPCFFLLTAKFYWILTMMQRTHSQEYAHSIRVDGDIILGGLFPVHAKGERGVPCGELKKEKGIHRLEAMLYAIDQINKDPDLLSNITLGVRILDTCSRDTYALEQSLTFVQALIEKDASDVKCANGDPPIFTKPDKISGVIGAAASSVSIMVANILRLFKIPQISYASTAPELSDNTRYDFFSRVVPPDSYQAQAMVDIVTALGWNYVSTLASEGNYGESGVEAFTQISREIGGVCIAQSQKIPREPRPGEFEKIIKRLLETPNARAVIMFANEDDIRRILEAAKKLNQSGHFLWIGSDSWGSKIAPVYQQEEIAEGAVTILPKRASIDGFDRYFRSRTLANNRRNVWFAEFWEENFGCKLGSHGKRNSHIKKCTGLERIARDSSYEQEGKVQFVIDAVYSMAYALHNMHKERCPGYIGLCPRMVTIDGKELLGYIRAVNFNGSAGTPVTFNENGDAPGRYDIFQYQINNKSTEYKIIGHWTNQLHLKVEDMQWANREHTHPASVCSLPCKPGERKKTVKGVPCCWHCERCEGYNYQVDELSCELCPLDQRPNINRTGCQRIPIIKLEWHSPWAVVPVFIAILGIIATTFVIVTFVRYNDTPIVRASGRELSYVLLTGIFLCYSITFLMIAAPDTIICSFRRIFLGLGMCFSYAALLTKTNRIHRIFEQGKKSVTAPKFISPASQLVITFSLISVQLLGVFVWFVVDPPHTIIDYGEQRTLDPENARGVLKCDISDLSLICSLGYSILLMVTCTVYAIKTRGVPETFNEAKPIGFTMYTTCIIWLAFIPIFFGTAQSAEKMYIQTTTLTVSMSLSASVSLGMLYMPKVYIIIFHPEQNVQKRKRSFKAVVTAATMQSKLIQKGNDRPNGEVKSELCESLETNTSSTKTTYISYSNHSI
`COc1ccc2cc(CN(CC3COCCO3)S(=O)(=O)c3c(C)cc(C)cc3C)c(=O)[nH]c2c1` (stereo not given) had a z-score of -0.447.

In turn, `CCOc1ccc(NS(=O)(=O)c2cc(OC)ccc2OC)cc1` yielded a z-score of -0.0217.

`Cc1nn(CCOc2ccccc2)c(=O)n1-c1ccc(F)cc1` returned a z-score of 0.0778.

In the case of `CCOc1ccc(C(C)=O)cc1N1C(=O)C2C(C1=O)C1C=CC2C12CC2` (stereo not given), the z-score is active: 4.92.

With `Cn1nc(C(F)(F)F)c(/C=N/OC(=O)c2ccccc2Cl)c1SCc1ccc(Cl)cc1`, the z-score was -0.0559.

Compound `Cc1nc(C(F)(F)F)nc(Nc2ccc(Br)cc2)c1C#N` came in with a z-score of -0.188.

`OCc1ccc(O)c2ncccc12` registered a z-score of 0.138.

Compound `CCOC(=O)Nc1ccc2c(c1)ncn2C1CCCCC1` yielded a z-score of -0.15.

Turning to `CCOC(=O)c1cc2ccc3ccccc3c2s1`, the z-score was -0.181.

With `CC(=O)Nc1cc(-c2ccccc2)nn1Cc1ccc(Cl)cc1`, the z-score was -0.00476.

`Cc1c(NC(=O)C(C)OC(=O)c2sc3ccccc3c2Cl)c(=O)n(-c2ccccc2)n1C` (stereo not given) registered a z-score of -0.273.

For `COc1ccc(CNC(=O)CSc2ccc(Br)cc2)cc1OC`, the z-score is 0.192.

In turn, `CC(=O)NC(CCS(C)(=O)=O)C(=O)Nc1cccc(C)c1C` (stereo not given) registered a z-score of -0.236.

`C=CCn1c(C)cc(C(=O)COC(=O)[C@@H](NC(=O)c2ccccc2Cl)C(C)C)c1C` displayed a z-score of -0.72.

Compound `CCCS(=O)(=O)N1CCCC(C(=O)NC2CCCCC2)C1` (stereo not given) gave a z-score of 0.0604.

Take `COc1ccc(C(C(C(=O)c2cccs2)N2CCOCC2)N2CCOCC2)cc1OC` (stereo not given): the z-score was 0.692.

`O=C(/C=C/c1cccc([N+](=O)[O-])c1)NCCN1CCOCC1` had a z-score of -0.0971.

`Clc1cccc(Cl)c1-c1nnc2cccc(Cl)n12` displayed a z-score of -0.269.

Compound `CCCCOc1c(Cl)cc(CNC(C)(C)CO)cc1OCC` showed a z-score of 0.55.

For `c1csc(-c2cnc3n2CCCC3)c1`, the z-score amounted to 0.383.

`Nc1nc(NC(=O)c2ccc(Cl)cc2)nn1-c1ccccc1` gave a z-score of 0.108.

With `C/C(=N\NC(=O)c1ccccc1C)c1ccc(NC(=O)c2cccs2)cc1`, the z-score was -0.494.

In turn, `Cc1ccc(/C=C/C(=O)Nc2sc3c(c2C#N)CCCC3)o1` had a z-score of -0.479.

In turn, `COc1ccc(N=C2S/C(=C\c3ccco3)C(=O)N2CC(C)C)cc1` registered a z-score of 0.317.

In turn, `CN(C1=C(N2CCOCC2)C(=O)c2ccccc2C1=O)c1ccccc1` returned a z-score of -0.245.

Compound `Cc1ccc2[nH]c(=O)c3cc(C(=O)N(C)Cc4ccco4)sc3c2c1` showed a z-score of -0.199.

In the case of `CC(C)(C)c1ccc(-c2cc(C(=O)NNC(=O)Nc3ccccc3)c3ccccc3n2)cc1`, the z-score is -0.224.

Compound `Cc1[nH][nH]c(=O)c1C(c1c(C)[nH][nH]c1=O)c1cn(Cc2cccc3ccccc23)c2ccccc12` displayed a z-score of -0.435.

Regarding `CC(=O)c1c(C)[nH]c(C(=O)OCC(=O)Nc2ccc(C)cc2[N+](=O)[O-])c1C`, the z-score is -0.12.

The compound `COc1ccc(CCNC(=O)C2CCN(S(C)(=O)=O)CC2)cc1` gave a z-score of 0.184.

Compound `CCOc1ccc(CCNS(=O)(=O)c2cccc3nsnc23)cc1OCC` registered a z-score of -0.446.

For the compound `COc1ccc(-n2cccc2C=O)cc1`, the z-score is -0.00429.

For the compound `CC1=CC(C)(C)N(C(=O)CSc2ncn[nH]2)c2ccccc21`, the z-score was -0.118.

Consider `Cc1nn(Cc2ccccc2Cl)c(Cl)c1/C=C/C(=O)OCC(=O)NC(N)=O`, for which the z-score was -0.165.

In turn, `O=C(OCc1nnc(-c2ccccc2)o1)c1ccc(S(=O)(=O)NCc2ccco2)cc1` came in with a z-score of -0.0322.

In turn, `Cc1nc(CC(=O)Nc2nc(C(C)(C)C)cs2)cs1` displayed a z-score of 0.603.

As for `CC(C)COC(=O)Cc1c(O)c2ccccc2[nH]c1=O`, the z-score is -0.0593.

With `COc1ccc(C2NC(=O)c3ccccc3O2)c(OC)c1OC` (stereo not given), the z-score amounted to 0.587.

The compound `CCc1nnc(NC(=O)CSc2nc3c(cc2C#N)CCCC3)s1` displayed a z-score of 0.0301.

The compound `CCCNC(=O)CN(c1ccccc1)S(=O)(=O)c1ccc(OC)c(OC)c1` registered a z-score of -0.0477.

Take `O=C(Cc1csc(-c2ccccc2)n1)NCc1ccccc1F`: the z-score was -0.471.

Compound `COC(=O)c1c(NC(=O)c2ccc(C)c(S(=O)(=O)Nc3ccccc3C)c2)sc2c1CCCC2` registered a z-score of 0.697.

For the compound `c1ccc(Cn2nnnc2C(c2cccnc2)N2CCN(C3CCCCC3)CC2)cc1` (stereo not given), the z-score was -0.537.

Compound `CCCCCCCC(=O)NNC(=O)c1ccc(F)cc1` returned a z-score of -0.223.

Turning to `C=CC(=O)NC(NC(=O)C=C)c1ccc(Br)cc1`, the z-score was -0.201.

For the compound `COCCN(C(=O)Cc1cccs1)c1nnc(-c2cccnc2)s1`, the z-score is -0.159.

On to `COc1ccc(OCCCC(=O)Nc2ccc3c(c2)OCCO3)cc1`, for which the z-score was -0.179.

The compound `COc1ccc(S(=O)(=O)NCCc2csc(C)n2)cc1C` registered a z-score of -0.522.

On to `Cc1cc(C)nc(Nc2n[nH]c(-c3ccccc3Br)n2)n1`, for which the z-score is -0.844.

`Fc1cc(Br)ccc1NC(=S)Nc1ccccc1` displayed a z-score of 0.843.

In the case of `CO/N=C(/c1nonc1N)N1CCN(c2ccc([N+](=O)[O-])cc2)CC1`, the z-score stood at 0.181.

`Cc1ccc(N2C(=O)CCSC23C(=O)Nc2ccccc23)cc1` (stereo not given) displayed a z-score of -0.0429.

Compound `COc1ccc(C2C(C#N)=C(N)Oc3cc(C)n(Cc4ccco4)c(=O)c32)cc1` (stereo not given) had a z-score of -0.427.

As for `Cc1cc(C)n(CCc2nc(-c3ccc(C)o3)cs2)n1`, the z-score came out at 0.0644.

`CN(C)S(=O)(=O)c1ccc(Oc2ccc(S(=O)(=O)N(C)C)cc2)cc1` had a z-score of -0.0806.

As to `CCOc1ccc(CNC(=O)C2CCN(S(=O)(=O)CC)CC2)cc1OC`, the z-score is 0.0245.

`CCOC(=O)C(NC(C)=O)C(OC(C)=O)c1cccc([N+](=O)[O-])c1` (stereo not given): the z-score is -0.158.

Regarding `Cc1ccc(NS(=O)(=O)c2ccc(NS(=O)(=O)c3cccs3)cc2)cc1`, the z-score is -0.416.

As for `Cn1c(=O)c2c(nc(CN3CCN(c4ccccc4)CC3)n2CCCc2ccccc2)n(C)c1=O`, the z-score is -0.313.

On to `O=C(c1ccc2c(c1)OCO2)N(CC1CCCO1)C1(C(=O)NC2CCCCC2)CCCCC1` (stereo not given), for which the z-score worked out at 0.662.

Take `O=C(Cn1cnc2ccccc2c1=O)NC1CCCc2ccccc21` (stereo not given): the z-score was found to be 0.244.

In the case of `O=C(c1ccccc1NS(=O)(=O)c1cccc([N+](=O)[O-])c1)N1CCOCC1`, the z-score was -0.138.

`COc1ccc(-c2oc(NC(=O)CCl)c(C#N)c2-c2ccc(OC)cc2)cc1` showed a z-score of -0.419.

Take `Cc1c(C(c2cccc([N+](=O)[O-])c2O)c2c(C)n(C)n(-c3ccccc3)c2=O)c(=O)n(-c2ccccc2)n1C`: the z-score was -0.0431.

With `Cc1cc(C(=O)Nc2cccc(O)c2)co1`, the z-score is 0.113.

As for `O=C(CN(c1ccc(F)cc1)S(=O)(=O)c1ccc2c(c1)OCCO2)Nc1ccc2c(c1)OCO2`, the z-score came to 0.148.

For `COc1ccccc1NS(=O)(=O)c1cc([N+](=O)[O-])ccc1N/N=C/c1c(C)[nH]c2ccccc12`, the z-score stood at 0.13.

Take `CCSCCC(NC1=CC(=O)CC(C)(C)C1)C(=O)O` (stereo not given): the z-score is -0.215.

Take `CNc1cnn(-c2ccccc2)c(=O)c1Cl`: the z-score was -0.78.

`CCCCC(NC(C)=O)c1nc2ccccc2n1CCC` (stereo not given): the z-score was -0.147.

`COc1ccc(C(=O)N2CCC(N3CCN(c4ccccc4)CC3)CC2)cc1` displayed a z-score of -0.292.

For the compound `C(=N\n1cnc2ccccc21)/c1cccnc1`, the z-score is -0.0941.

On to `Clc1ccc(C2Nc3ccccc3-n3cccc32)cc1` (stereo not given), for which the z-score came out at 1.16.

Compound `CCNC(=O)C(C)Sc1ccc(Cl)cc1` (stereo not given) displayed a z-score of -0.148.

Take `COc1ccc2nc3sc(C(=O)NCCCN4CCc5ccccc5C4)cc3cc2c1`: the z-score came out at 0.283.

`Cc1ccc(-c2nc(-c3cccnc3)no2)c(C)c1`: the z-score is -0.00682.

`Cc1c(NC(=O)COC(=O)c2cc(-c3ccc(-c4ccccc4)cc3)nc3ccccc23)c(=O)n(-c2ccccc2)n1C` displayed a z-score of -0.309.

On to `Cc1cc(C)cc(NC(=S)NCCc2ccc(S(N)(=O)=O)cc2)c1`, for which the z-score was determined as 0.00822.

As to `Cc1ccc(NS(=O)(=O)c2ccc(NC(=O)CSc3ccc(Cl)cc3)cc2)c(C)c1`, the z-score is -0.0812.

`O=C(O)CCCCCNC(=O)Nc1ccc2c(c1)OCCO2` came in with a z-score of -0.258.

The compound `Cc1noc(C)c1C(=O)NC(C)C1CCCO1` (stereo not given) displayed a z-score of -0.456.

`CCCCC(=O)NCCc1cc2c(C)ccc(C)c2[nH]c1=O` had a z-score of -0.21.

Turning to `O=C(COC(=O)c1ccccc1C(=O)c1ccc(Cl)cc1)NC(c1ccccc1)c1ccccc1`, the z-score is -0.14.

With `CC1=C(C(N)=O)C(c2ccncc2)n2nc(-c3ccccc3Cl)nc2N1` (stereo not given), the z-score is -0.353.

`CCCCOc1ccccc1NC(=O)CC1SC(=NCC)N(CC)C1=O` (stereo not given) came in with a z-score of 0.518.

`c1ccc(-c2cnnc(N3CCCCC3)n2)cc1` came in with a z-score of -0.602.

On to `Cc1ccc2[nH]c(=O)c(CN(CC3CCCO3)S(=O)(=O)c3c(C)ccc4nsnc34)cc2c1` (stereo not given), for which the z-score was -0.0122.

In the case of `CC1Sc2ccc(C(=O)O)cc2NC1=O` (stereo not given), the z-score is -0.0525.

On to `Cc1ccc(C)c(S(=O)(=O)NC(C)C(=O)Nc2ccc(-c3nc4ccccc4s3)cc2)c1` (stereo not given), for which the z-score was determined as 0.0236.

For the compound `Nc1ccccc1Oc1ncc(C(F)(F)F)cc1Cl`, the z-score came to 0.022.

The compound `c1ccc(OCCSc2ncnc3nc[nH]c23)cc1` returned a z-score of -0.123.

On to `COc1ccc(Cn2c(-c3ccc(OC)cc3)nc3c(c(=O)c4ccccc4n3C)c2=O)cc1`, for which the z-score was -0.37.

In turn, `C=C(C)n1c(=O)[nH]c2ccccc21` came in with a z-score of 0.0218.

Regarding `C=CCNC(=O)CSc1ccc(Cl)cc1`, the z-score was -0.0805.

Take `Cc1ccc(SCc2nnc(NC(=O)c3ccccc3)s2)cc1`: the z-score was found to be 0.572.

`COc1cccc(/C(O)=C2/C(=O)C(=O)N(CCN3CCOCC3)C2c2cccnc2)c1` (stereo not given) displayed a z-score of 0.0203.

`Cc1ccc2nc(C(F)OC(F)(F)F)[nH]c2c1` (stereo not given) displayed a z-score of -0.0345.

`COc1cccc(C(=O)NC(=S)N2CCN(c3ccc(C(F)(F)F)cc3[N+](=O)[O-])CC2)c1`: the z-score was active: 4.68.

As to `CCCC(=O)Nc1c(-c2ccccc2)c(=O)c(C)nn1-c1ccc(Cl)cc1`, the z-score is -0.343.

Regarding `CCN1CCN(S(=O)(=O)c2cccs2)CC1`, the z-score stood at 0.736.

Take `Cc1cccc(NC(=O)c2ccc(N3CCCCC3)c([N+](=O)[O-])c2)n1`: the z-score is 0.863.

Compound `Cc1ccc(C(=O)NNC(=O)OC(C)(C)C)c(Cl)c1` showed a z-score of -0.165.

`Clc1ccc2c(c1)CNc1c(ncnc1N1CCOCC1)O2` displayed a z-score of 0.261.

As to `CN(c1ccc(C(=O)N2CCOCC2)cc1[N+](=O)[O-])C1CCCCC1`, the z-score is -0.174.

Compound `Cc1cccc(OC(=O)CN2C(=O)C3C4CCC(C4)C3C2=O)c1C` (stereo not given) displayed a z-score of -0.136.

With `CCn1c(O)c(/C=C2\C=Nc3ccccc32)sc1=Nc1ccc(C)cc1`, the z-score was -0.138.

`CC(=O)C1=C(O)C(=O)N(Cc2cccnc2)C1c1ccccc1Cl` (stereo not given) gave a z-score of -0.135.

`O=C(Nc1ccccc1F)C1CC1c1ccccc1` (stereo not given): the z-score is -0.295.

With `O=C1CC(N(CCc2ccccc2)C(=S)Nc2ccccc2)C(=O)N1c1ccc(Br)cc1` (stereo not given), the z-score was determined as 0.105.

Compound `COc1ccccc1C(=O)NCc1ccccc1` gave a z-score of -0.524.
